# Results taken from the supplement of paper PMC8728848.
# The other results are listed elsewhere or left out.
# B1: CC1G-10077 (Coprinopsis cinerea), A8NDT7 (protein)
# chain: MALNEGVYWIRNSRFTNKVLDLDAANVAKGTSILDFNEHGTFNENHNQLWIVERFQSRDTYLIRSVHSNLVLDLSQGLSANGTPILCWTQHGGTNQQWRIEWVKDDNKTPLYRIVSVATGTAISHNEDDSSAYTVAWSVDDGPKQLWSFDPFVTPLLYRLRVKSTSRVLDLAAASADNGTLALAWEQHTAITKRNQLWWLPYRSGAEEYTIQCLETSTVADLSGGNSGNGTPIYGWQSHGGRNQQWKFEPTSDSGDYYHIKNVEGGSVMDAYMNDSQKRVGGWSNNGGDNQKWLLDPLPSPGPGWVLIQNGGTGKFLCSTPSGDIGTADGPETVYDYSVQWRFIQREYTGVYHVVNRATGAYLRQIGTSMPSIGLAEENDDELKDWWMLETYDNSEIGLASIISRWTGNVLDHYGGVSVQALDNNTENSYRSWAIIPARDWLTSFSLVNGQGGLCLAAQYAREETRLSTTANVNDFHAQWVFRKPSGSSGYTIQNKYNNHYVGGTSARWELVVCCNKYFGIRNTSTQKYLAIEDGQVTFQDQDMTDRKQCWELCSGRATDTSGNDYDLIYMDDDLLEVMIPWVGDKQGDLKHYIEKRATKKPPKDKGGWQLPAAGLIKKPKFNDIRQLLQELIEQWEWDVVNEEREQIQTLVSIDEAEARRLLGRRPHPDIVAAYQRSRSSTLFRIDRQGYFNIAGDRYVNIQGQYGDDSYFHIALPVGVRFGREQIRRFLRDSLDRSTSVTITPTTCKPPSGGPDYNRDPDSDGDNSWIKWTIAVVGTSAIKHSEL
# Key:
# Assay in all cases: glycan array binding signal (z-score within array); higher = stronger binding
# Settings in all cases: glycan notation: IUPAC condensed, linker removed
# Gal(a1-3)Gal(b1-4)GlcNAc = molecular target: Gal(a1-3)Gal(b1-4)GlcNAc
# Outline: (§1)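 From the Consortium for Functional Glycomics database, 3228 arrays were curated, keeping only those whose protein sequence was available. Binding is given as a within-array Z-score averaged across arrays sharing a protein sequence and across linkers. Negative Z-scores can be read as non-binding.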
# [1] = molecular target: Gal(a1-3)Gal(b1-4)GlcNAc(b1-2)Man
# Outline: as §1
# [2] = molecular target: Gal(a1-3)Gal(b1-4)GlcNAc(b1-2)Man(a1-3)[Gal(a1-3)Gal(b1-4)GlcNAc(b1-2)Man(a1-6)]Man(b1-4)GlcNAc(b1-4)GlcNAc
# Outline: as §1
# [3] = molecular target: Gal(a1-3)Gal(b1-4)GlcNAc(b1-3)GalNAc
# Outline: as §1
# [4] = molecular target: Gal(a1-3)Gal(b1-4)GlcNAc(b1-6)GalNAc
# Outline: as §1
# [5] = molecular target: Gal(a1-3)Gal(b1-4)[Fuc(a1-3)]GlcNAc
# Outline: as §1
# [6] = molecular target: Gal(a1-3)Gal(b1-4)[Fuc(a1-3)]GlcNAc(b1-2)Man(a1-3)[Gal(a1-3)Gal(b1-4)[Fuc(a1-3)]GlcNAc(b1-2)Man(a1-6)]Man(b1-4)GlcNAc(b1-4)GlcNAc
# Outline: as §1
# Gal(a1-3)GalNAc = molecular target: Gal(a1-3)GalNAc
# Outline: as §1
# [7] = molecular target: Gal(a1-3)[Gal(a1-4)]Gal(b1-4)GlcNAc
# Outline: as §1
# [8] = molecular target: Gal(a1-4)Gal(b1-3)GlcNAc(b1-2)Man(a1-3)[Gal(a1-4)Gal(b1-3)GlcNAc(b1-2)Man(a1-6)]Man(b1-4)GlcNAc(b1-4)GlcNAc
# Outline: as §1
# Gal(a1-4)Gal(b1-4)Glc = molecular target: Gal(a1-4)Gal(b1-4)Glc
# Outline: as §1
# Gal(a1-4)Gal(b1-4)GlcNAc = molecular target: Gal(a1-4)Gal(b1-4)GlcNAc
# Outline: as §1
# [9] = molecular target: Gal(a1-4)Gal(b1-4)GlcNAc(b1-2)Man(a1-3)[Gal(a1-4)Gal(b1-4)GlcNAc(b1-2)Man(a1-6)]Man(b1-4)GlcNAc(b1-4)GlcNAc
# Outline: as §1
# [10] = molecular target: Gal(a1-4)Gal(b1-4)GlcNAc(b1-3)Gal(b1-4)Glc
# Outline: as §1
# Gal(a1-4)GlcNAc = molecular target: Gal(a1-4)GlcNAc
# Outline: as §1
# Gal(a1-6)Glc = molecular target: Gal(a1-6)Glc
# Outline: as §1
# Gal(b1-2)Gal = molecular target: Gal(b1-2)Gal
# Outline: as §1
# Gal(b1-3)Gal = molecular target: Gal(b1-3)Gal
# Outline: as §1
# Gal(b1-3)Gal(b1-4)GlcNAc = molecular target: Gal(b1-3)Gal(b1-4)GlcNAc
# Outline: as §1
# Gal(b1-3)GalNAc = molecular target: Gal(b1-3)GalNAc
# Outline: as §1
# [11] = molecular target: Gal(b1-3)GalNAc(a1-3)[Fuc(a1-2)]Gal(b1-4)Glc
# Outline: as §1
# [12] = molecular target: Gal(b1-3)GalNAc(a1-3)[Fuc(a1-2)]Gal(b1-4)GlcNAc
# Outline: as §1
# Gal(b1-3)GalNAc(b1-3)Gal = molecular target: Gal(b1-3)GalNAc(b1-3)Gal
# Outline: as §1
# [13] = molecular target: Gal(b1-3)GalNAc(b1-3)Gal(a1-4)Gal(b1-4)Glc
# Outline: as §1
# [14] = molecular target: Gal(b1-3)GalNAc(b1-4)Gal(b1-4)Glc
# Outline: as §1
# [15] = molecular target: Gal(b1-3)GalNAc(b1-4)[Neu5Ac(a2-3)]Gal(b1-4)Glc
# Outline: as §1
# Gal(b1-3)GlcNAc = molecular target: Gal(b1-3)GlcNAc
# Outline: as §1
# [16] = molecular target: Gal(b1-3)GlcNAc(a1-3)Gal(b1-4)GlcNAc
# Outline: as §1
# [17] = molecular target: Gal(b1-3)GlcNAc(a1-6)Gal(b1-4)GlcNAc
# Outline: as §1
# Gal(b1-3)GlcNAc(b1-2)Man = molecular target: Gal(b1-3)GlcNAc(b1-2)Man
# Outline: as §1
binder,measurement,setting,value
B1,glycan array binding signal (z-score),Gal(a1-3)Gal(b1-4)GlcNAc,0.177
same,glycan array binding signal (z-score),[1],-0.237
same,glycan array binding signal (z-score),[2],1.36
same,glycan array binding signal (z-score),[3],-0.3
same,glycan array binding signal (z-score),[4],1.93
same,glycan array binding signal (z-score),[5],0.744
same,glycan array binding signal (z-score),[6],0.626
same,glycan array binding signal (z-score),Gal(a1-3)GalNAc,-0.374
same,glycan array binding signal (z-score),[7],1.58
same,glycan array binding signal (z-score),[8],1.57
same,glycan array binding signal (z-score),Gal(a1-4)Gal(b1-4)Glc,1.04
same,glycan array binding signal (z-score),Gal(a1-4)Gal(b1-4)GlcNAc,-0.007
same,glycan array binding signal (z-score),[9],0.828
same,glycan array binding signal (z-score),[10],-0.131
same,glycan array binding signal (z-score),Gal(a1-4)GlcNAc,-0.197
same,glycan array binding signal (z-score),Gal(a1-6)Glc,-0.49
same,glycan array binding signal (z-score),Gal(b1-2)Gal,-0.363
same,glycan array binding signal (z-score),Gal(b1-3)Gal,-0.345
same,glycan array binding signal (z-score),Gal(b1-3)Gal(b1-4)GlcNAc,0.019
same,glycan array binding signal (z-score),Gal(b1-3)GalNAc,-0.406
same,glycan array binding signal (z-score),[11],-0.294
same,glycan array binding signal (z-score),[12],-0.27
same,glycan array binding signal (z-score),Gal(b1-3)GalNAc(b1-3)Gal,-0.311
same,glycan array binding signal (z-score),[13],0.146
same,glycan array binding signal (z-score),[14],-0.148
same,glycan array binding signal (z-score),[15],-0.33
same,glycan array binding signal (z-score),Gal(b1-3)GlcNAc,-0.1
same,glycan array binding signal (z-score),[16],0.204
same,glycan array binding signal (z-score),[17],2.24
same,glycan array binding signal (z-score),Gal(b1-3)GlcNAc(b1-2)Man,-0.106
